Reference: PubChem BioAssay AID1508624 (National Center for Advancing Translational Sciences (NCATS), 2021)
The whole screen tested about 48,000 compounds, of which about 120 (0.25%) were called active. About 4% were inconclusive and are not listed. Calls follow the shape of the dose curve; as a rule, active = well fitted activation curve with a large enough effect; inconclusive = small, poorly fitted or top-dose-only effect, or another doubt; inactive = no such curve, though single readings can be large or run the other way. Some of the results follow.

Assay: Primary qHTS for Identification of Small Molecule Activators of Huntingtin-Antisense Promoter Activity; also: nearly all actives have a fitted effect of over 55% in size
Conditions: HEK293 HTT-AS promoter firefly luciferase reporter (activity 0% = vehicle and -100% = no light), 24 h; series mostly up to 57.5 µM; activity change, positive = activation: at the top concentration
How it was run: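 Quantitative HTS used concentration series of up to 57.5 uM final on HEK293 luciferase reporter cells, 24 h at 37 degrees C. Readout was Dual-Glo firefly luminescence.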

Activity change, positive = activation, inactive:
Cc1ccc(CN(C(=O)COc2ccc(Cl)cc2C)C2CCS(=O)(=O)C2)o1 (stereo not given) -20.4%
CC1=C(CO)C(=O)O[C@@H]([C@@H](C)[C@H]2CC[C@H]3[C@@H]4C[C@H]5O[C@]56[C@@H](O)C=CC(=O)[C@]6(C)[C@@H]4CC[C@]23C)C1 -94.8%
CSc1ccc(C2c3c(oc4cc(C)cc(C)c4c3=O)C(=O)N2CCO)cc1 (stereo not given) 6.52%
Cc1nc2sc(C(=O)N(C)c3ccccc3)c(NC(=O)c3ccccc3Cl)c2c(C)c1C -16.1%
COc1ccc(C2C(C(=O)Nc3ccccc3OC)=C(C)Nc3c(C(=O)Nc4ccccc4)cnn32)c(OC)c1 (stereo not given) -6.91%
CCN(CC)C(=O)C1CN2CCc3cc(OC)c(OC)cc3C2CC1OC(C)=O (stereo not given) -3.89%
Cc1ccc(OCC(=O)N(Cc2ccco2)Cc2ccco2)cc1C -32.7%
CC(C)CCNC(=O)CCn1c(=O)c2cccn2c2cccnc21 -4.26%
COc1cn(CC(=O)Nc2ccccc2)c(CN2CCCCC2)cc1=O -9.43%
CCN(CC)Cc1c(NC(=O)c2ccc(OC)cc2)sc2c1CCCC2 22.9%
COc1ccc(CCNC(=O)Cn2c(=O)c3cccn3c3ccc(F)cc32)c(OC)c1 -7.51%
CC(=O)Nc1ccc(Nc2nc3c(S(=O)(=O)c4cccc(Cl)c4)nnn3c3ccsc23)cc1 -10.8%
Cc1ccc(C)c(-c2nnc(NC(=O)c3ccc4c(c3)OCCO4)o2)c1 -14.4%
Cc1oc2ncn(CC(C)C)c(=O)c2c1C(=O)NCCCN1CCC(C)CC1 12.9%
O=C(COc1ccccc1F)OCc1cc(=O)n2nc(C3CC3)sc2n1 -11.7%
COc1ccc(-c2cc(C(=O)Oc3cccc(C)c3)c3cc(C)ccc3n2)cc1 -9.5%
Cc1ccc(NC(=O)CN2C(=O)CCc3cc(S(=O)(=O)N4CCCCC4)ccc32)cc1C -12.7%
COc1cccc(C(=O)Nc2ccc(-n3nncc3-c3ccccc3)cc2)c1 -3.16%
Cc1cc(C)cc(-n2c(C)nc3cc(C(=O)NCc4ccccc4Cl)ccc32)c1 -11.7%
Cc1cccc(C(=O)Nc2ccc(OCc3cc(=O)n4ccsc4n3)cc2)c1 -1.04%
CCN(CC)S(=O)(=O)c1ccc2c(c1)N(CC(=O)N1CCN(c3ccc(Cl)cc3)CC1)C(=O)CO2 -9.6%
O=C(NC1CCCCCC1)C1c2ccccc2C(=O)N1Cc1ccccc1Cl (stereo not given) -5.97%
O=C(O)[C@@H]1[C@H]2C[C@H]3c4[nH]c5ccccc5c4CCN3C[C@@H]2CC[C@@H]1O -3.65%
O=C(Cn1ccc2cc(S(=O)(=O)N3CCCCCC3)ccc21)NCCc1ccc(Cl)cc1 -44.4%
CCN1CCN(C(=O)c2ccc3c(c2)N(Cc2ccccc2F)C(=O)c2ccccc2S3=O)CC1 (stereo not given) -9.85%
Cc1ccc(-n2c3c(cc(C(=O)Nc4cccc(Cl)c4)c2=O)C(=O)CC(C)(C)C3)cc1 -3.21%
Cc1ccc(Cl)cc1N1CCN(C(=O)CCCCCn2c(=O)[nH]c3ccccc3c2=O)CC1 -2.22%
CCOc1ccccc1-c1nc(SCC(=O)c2ccc(OC)c(Br)c2)n[nH]1 -9.08%
CCc1ccc(NC(=O)C2CCCN(S(=O)(=O)c3c(C)noc3/C=C/N(C)C)C2)cc1 (stereo not given) -21.9%
CC(C)OC(=O)c1cccnc1SCC(=O)Nc1ccc(C(F)(F)F)cc1Cl 10.8%
CC(=O)c1cccc(NC(=O)C(C)n2c(=O)cc(-c3ccccc3)c3c(C)nn(C)c32)c1 (stereo not given) -7.59%
COc1cccc(CNC(=O)c2ccc(NC(=O)N3CCCCc4ccccc43)cc2)c1OC -6.15%
CCOc1ccc(-c2cc(-c3nc(-c4ccc(C)cc4)no3)[nH]n2)cc1 -0.986%
CCN1C(=O)c2ccccc2S(=O)(=O)c2ccc(C(=O)NCc3ccccc3Cl)cc21 -19%
O=C(O)CCCCCC(=O)NN=C1CCCC1 -8.69%
COC(=O)CSc1ncc2c(n1)-c1ccccc1N(Cc1cccc(F)c1)S2(=O)=O 19.6%
CCOC(=O)C1CCN(C(=O)CSc2n[nH]c(-c3ccc(F)cc3)n2)CC1 -13%
COc1cccc(CNC(=O)c2c(C)oc3nc(C)nc(N4CCOCC4)c23)c1 3.12%
O=C(Cn1c(=O)oc2cc(S(=O)(=O)N3CCCC3)ccc21)NCc1ccc(F)cc1 -30.9%
CCc1cccc(C)c1NS(=O)(=O)c1c(C)nc2sccn2c1=O -11.3%
CC1(C)[C@H]2CC[C@]3(C)[C@@H](C(=O)C=C4[C@@H]5C[C@@](C)(C(=O)O)CC[C@]5(C)CC[C@]43C)[C@@]2(C)CC[C@@H]1O -7.39%
Cc1cc(C(=O)C(=O)Nc2nnc(C(C)C)s2)c(C)n1-c1ccccc1 -86.1%
CC(C)CCOc1ccccc1Cn1c(=O)sc2ccccc21 -7.58%
O=C(NCCCN1CCOCC1)c1ccc(Cl)cc1 4.15%
Cc1ccccc1NS(=O)(=O)c1ccc2[nH]c3c(c2c1)CCCCC3 -38.2%
CCOC(=O)c1cc(-c2ccccc2)n(CCC(=O)Nc2nc3c(C)cccc3s2)c1C -30.1%
CCOc1ccccc1CNC(=O)CCn1ccc2cc(S(=O)(=O)N3CCCCC3)ccc21 -13.2%
CCc1ccc(-n2c(=O)c3c(C)c(C(=O)N(C)C)sc3n(Cc3ccccc3F)c2=O)cc1 -5.13%
Clc1ccc(C2(c3ccc(-c4cn[nH]c4)cc3)CCNCC2)cc1 -33.5%
Cn1c(=O)c2sccc2n2c(CCCC(=O)Nc3ccc(Oc4ccc(Cl)cc4)cc3)nnc12 -27.4%
CC(=O)N1c2c(cc(Br)cc2S(=O)(=O)N2CCN(c3ccccc3)CC2)CC1C (stereo not given) -49.6%
Cc1ccc(-c2cc3c(N4CCN(c5cc(C)ccc5C)CC4)nccn3n2)cc1 -25.5%
O=c1c2sccc2n(Cc2cc(=O)n3ccccc3n2)c(=O)n1-c1cccc(C(F)(F)F)c1 -14.5%
Cc1ccc2oc(-c3cccc(NC(=O)c4sc5c([N+](=O)[O-])cccc5c4Cl)c3)nc2c1 16.9%
Cc1cnc(=O)[nH]c1SCC(=O)Nc1nc2ccccc2s1 23.5%
Cc1ccc(-c2nnc(SCC(=O)NCc3ccccc3)nc2-c2ccc(C)cc2)cc1 -38.4%
COc1ccccc1N1CCN(C(=O)c2cnc(N3CCCCC3)c3ccccc23)CC1 -39.5%
CNS(=O)(=O)c1cc(-c2nnc(Nc3cc(C)ccc3C)c3ccccc23)ccc1C -54.9%
CCOC(=O)c1cnc2ccccc2c1Nc1cccc(OC)c1 -31.8%
Cc1cc2c(cc3c(SCC(=O)Nc4cccc(Cl)c4C)nnc(C)n32)o1 -12.9%
CCc1ccc(C(=O)NC(Cc2c[nH]c3ccccc23)C(=O)OCC(=O)c2ccc(Br)cc2)cc1 (stereo not given) -5.59%
COc1ccc(/C=C/C(=O)Nc2ccc(Cl)c(Cl)c2)cc1 24.3%
Cc1cc(-c2ccc(C)c(S(=O)(=O)Nc3cccc(C#N)c3)c2)on1 -41.8%
CCOc1ccc(CCNC(=O)c2c(C)oc3ncn(C)c(=O)c23)cc1 2.92%
O=C(COc1ccc(F)cc1)NCCc1nc2ccccc2[nH]1 -16%
Cc1ccc(Cn2ccnc2SCC(=O)Nc2ccccc2C(F)(F)F)cc1 -4.6%
COc1ccc(OC)c(NC(=O)CCn2cccn2)c1 -1.23%
CCCn1c2ccccc2c2cnn(CC(=O)NCc3ccc(OC)cc3)c(=O)c21 -7.07%
COc1ccccc1CNC(=O)C1CCN(S(=O)(=O)c2ccc3[nH]c(=O)ccc3c2)CC1 -2.04%
CCOC(=O)c1ccccc1NC(=O)NCc1cccn1Cc1ccc(F)cc1 -21.4%
CCc1nn(CC(=O)N2CCN(c3cccc(Cl)c3)CC2)c(=O)c2cc3sccc3n12 -8.41%
CCOc1ccc(NC(=O)Cn2c(=O)n(Cc3ccco3)c(=O)c3ccc(C(=O)NC4CCCC4)cc32)cc1 -17.3%
O=C(CCC1CCN(Cc2ccccc2)CC1)c1ccc2c(c1)NCCCC2 -24.4%
O=C1CC(c2cccc(Cl)c2Cl)c2cc3c(cc2N1)OCCO3 (stereo not given) -37.2%
COc1cc(OC)c(NC(=O)Cn2c(SCc3ccccc3F)nc3cccnc32)cc1Cl -3.95%
Cc1ccccc1N=Nc1ccc(N=Nc2c(O)ccc3ccccc23)c(C)c1 18.1%
CCOc1ccc(NC(=O)Cn2nc(SC)c(S(=O)(=O)c3ccccc3)c2N)cc1 -23.3%
CC(=O)c1ccc(N2CCN(c3nc4ccccc4c4nc(-c5cccc(C)c5)nn34)CC2)cc1 5.76%
COc1ccc(NC(=O)CN2CCN(CC(=O)Nc3ccccc3F)CC2)cc1OC -3.33%
Cc1oc(-c2ccccc2Cl)nc1CS(=O)CC(=O)NCc1ccccc1Cl (stereo not given) -9.09%
CCOC(=O)c1ccc(NC(=O)COc2cccc3c(=O)n(C)ccc23)cc1 -45.2%
O=S(=O)(c1ccc(F)cc1)N(Cc1nc(-c2ccccc2)no1)C1CCCCC1 -22.7%
Cc1cc(Cl)ccc1OCC(=O)N1CCC(c2nc3ccccc3o2)CC1 -27.6%
O=C(COc1ccc(F)cc1)Nc1ccc(C(=O)OCc2cc(=O)n3nc(C4CC4)sc3n2)cc1 3.4%
Cc1ccc(CN(Cc2cccn2-c2nnc(N3CCCC3=O)s2)C(=O)Nc2ccc(F)cc2)cc1 -5.82%
CCOc1ccc(NC(=O)c2sc3nc4c(cc3c2N)CN(Cc2ccccc2)CC4)cc1 -14.8%
Cc1ccc(-n2nc(C(=O)Nc3ccc(Br)cc3C)c(=O)n(C)c2=O)cc1 -12.6%
COc1ccccc1CNC(=O)CSCc1nc(-c2ccc(OC)c(OC)c2)oc1C -19.3%
COC(=O)c1ccc(NC(=O)C(=O)NCCc2csc(-c3ccc(C(F)(F)F)cc3)n2)cc1 1.63%
O=C(Nc1cccc(C(=O)OCc2cc(=O)n3c4c(sc3n2)CCCC4)c1)c1cccc(Cl)c1 2.95%
COc1cccc(NC(=O)Cn2nnc(C(=O)NCCc3ccccc3)c2N)c1 -3.24%
Cc1nc(-c2ccc(S(=O)(=O)N(Cc3ccccc3)C(C)C)cc2)co1 -12.9%
COc1ccc(CCn2c(=O)c3cccnc3n(CC(=O)Nc3ccc(C)cc3C)c2=O)cc1OC -7.73%
Cn1cc(C(=O)Nc2ccc(C#N)cc2)c2ccccc2c1=O -29.9%
O=C(CSc1nc2c([nH]c3ccccc32)c(=O)n1-c1ccc(F)cc1)NCc1ccc(F)cc1 -35.8%
